Assay results taken from US20130288983A1 (Amgen, published 2013).
Where a chain is given by its changes, count along the chain named. Numbers in names are those of the source.

B1: ActRIIB-IgG1Fc (SEQ ID NO: 58) (Fc fusion)
chain: SGRGEAETRECIYYNANWELERTNQSGLERCEGEQDKRLHCYASWRNSSGTIELVKKGCWLDDFNCYDRQECVATEENPQVYFCCCEGNFCNERFTHLPEAGGPEVTYEPPPTAPTGGGGS[letters of human IgG1 Fc with T250I D280G (EU numbers) omitted]
notes: also called ActRIIB-IgG1Fc mature polypeptide; wild type
B2: vActRIIB-IgG1Fc, E28A (SEQ ID NO: 60) (Fc fusion)
chain: B1 chain with E10A
notes: also called vActRIIB-IgG1Fc E28A (E10A) mature polypeptide
B3: vActRIIB-IgG1Fc, E28W (SEQ ID NO: 62) (Fc fusion)
chain: B1 chain with E10W, I12L
notes: also called vActRIIB-IgG1Fc E28W (E10W) mature polypeptide
B4: vActRIIB-IgG1Fc, E28Y (SEQ ID NO: 64) (Fc fusion)
chain: B1 chain with E10Y
notes: also called vActRIIB-IgG1Fc E28Y (E10Y) mature polypeptide
B5: vActRIIB5-IgG1Fc, E28W (SEQ ID NO: 72) (Fc fusion)
chain: SGRGEAETRWCIYYNANWELERTNQSGLERCEGEQDKRLHCYASWRNSSGTIELVKKGCWLDDFNCYDRQECVATEENPQVYFCCCEGNFCNERFTHLPEAGGPEGPWASTTIPSGGPEATAAAGDQGSGALWLCLEGPAHEGGGGS[letters of human IgG1 Fc omitted]
notes: also called vActRIIB5-IgG1Fc E28W (E10W) mature polypeptide
B6: ActRIIB5-IgG1Fc (SEQ ID NO: 68) (Fc fusion)
chain: B5 chain with W10E
notes: also called vActRIIB5-IgG1Fc mature polypeptide; wild type ActRIIB5
B7: vActRIIB5-IgG1Fc, E28A (SEQ ID NO: 70) (Fc fusion)
chain: B5 chain with W10A
notes: also called vActRIIB5-IgG1Fc E28A (E10A) mature polypeptide

target: T1, Activin A (Homo sapiens (Human), UniProt P08476 311-426); assay: cell-based or functional assay
T1 sequence: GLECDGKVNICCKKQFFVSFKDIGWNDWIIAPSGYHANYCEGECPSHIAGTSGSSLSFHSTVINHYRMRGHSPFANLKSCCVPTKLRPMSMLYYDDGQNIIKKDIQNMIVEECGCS

| Binder | IC50 (nM) Activin, C2C12/pMARE-luc luciferase reporter assay, 4 nM activin |
| --- | --- |
| B1 | 8.2 nM |
| B2 | 25.3 nM |
| B3 | 2.07 nM |
| B4 | 2.1 nM |
| B5 | 16.9 nM |

target: T1, Activin A; assay: SPR (Biacore), purified protein, 20 nM activin A, normalized signal
Description: Qualitative BIAcore® Assay. E28 and R40 were substituted respectively with other natural amino acids in fusions with IgG1 Fc as described above. Each vActRIIB-IgG1Fc sample from conditioned media was captured on goat anti-human IgG1 Fc antibody (Jackson Immuno Research, cat#109-005-098, lot 63550) coated CMS surface. 20 nM of Activin A was injected over captured sample surfaces using BIACore2000 (BIACore Life Sciences, Piscataway, N.J.). The resulting sensorgrams were normalized to the captured RL (500 RU) of vActRIIB-IgG1Fc variants. The normalized binding response (RU) for some variants are shown in Table 2, and is further described below. Relative binding affinity for activin was also determined by Biacore measurements using conditioned media obtained from mammalian cell expression. Activin A (20 nM) was used to capture soluble receptor polypeptide in the conditioned media and measured SPR signals were normalized. Normalized SPR of +++++: >60, ++++:40-60, +++:20-40, ++:10-20, +: 5-10, −: <5.
Activin A (20 nM) was used to capture vActRIIB polypeptides in the samples and measured SPR signals were normalized. IC50 values were obtained from cell-based activin inhibition assays described above. Standard errors are less than 10% for all results.

| Binder | SPR normalized RU |
| --- | --- |
| B1 | 35 RU |
| B2 | 20 RU |
| B3 | 128 RU |
| B4 | 115 RU |
| B6 | 37 RU |
| B7 | 8 RU |
| B5 | 45 RU |
